T1: UNK ZnF1-3 (human, UniProt Q9C0B0 31-174)
T1 sequence: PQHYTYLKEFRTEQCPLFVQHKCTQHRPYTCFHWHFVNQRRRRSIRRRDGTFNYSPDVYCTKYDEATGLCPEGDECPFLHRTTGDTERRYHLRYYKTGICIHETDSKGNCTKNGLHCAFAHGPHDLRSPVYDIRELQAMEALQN

B1: chr4:115894766:115894767:+_ENSMUSG00000028698_ENSMUST00000030464|mus_mus|motif|central (ssRNA)
RNA: GGGAGUUCUACAGUCCGACGAUCUCCACACGGAAAUGUACUUGGGGGUUUCCAACGGCCAGUACAAGUCCAGCCAAACGGCGGGGAUGAGGACAAGGUCCUCCUCUUCUCUCCUCCUAAAGCACCCAACAAAAUACCCCGAACCAACAGAGGAUUGAGCAUCA
B2: chr14:78183846:78183847:+_ENSG00000119705_ENST00000557342|hu_hu|hu_hu_hu_mus_False|18_28 (ssRNA)
RNA: GGGAGUUCUACAGUCCGACGAUCUCUCAGAAAUCUUUCUUCAUCAGAUGUUUGAGCUCCGUGCAAAGCCUUUGCUCUUUGAGCUUGAACGUGGAUCUAUGGGAGGGCUAUAAUAUGAUUUUCCUGUAAUUUUUUUUUUAAAGACAACAGAGGAUUGAGCAUCA
B3: chr11:77336104:77336105:-_ENSG00000074201_ENST00000525064|hu_mus|hu_hu_hu_mus_False|8_68 (ssRNA)
RNA: GGGAGUUCUACAGUCCGACGAUCCUCACACAUUGCUGUGAACAUCGCCUCCAAUGCUGACUUAUCACUAGGCACAAAUCGAAAUUCAGAAAUGGGUUCAACAUCAUCAUUGUCUUCCUCAUCUUCAUCAUCAGCAAGUUCUUUCAACAGAGGAUUGAGCAUCA
B4: chr8:110352747:110352748:+_ENSG00000120533_ENST00000521662|hu_mus|hu_hu_hu_mus_True|1_1 (ssRNA)
RNA: GGGAGUUCUACAGUCCGACGAUCCAGGGCUCUGCCUUUUGGAGUGAUUUCAGCCACCAAGUCAUCAACAGUAACGUGUUCUAGUCCUUUUUCUUUAAUUACCUCUUUACAGUGUGCCUUUAGCUGAUCCUUCCAGCCACAUUCCAACAGAGGAUUGAGCAUCA
B5: chr7:90019630:90019631:+_ENSMUSG00000057706_ENSMUST00000082237|mus_mus|FALSE|FALSE (ssRNA)
RNA: GGGAGUUCUACAGUCCGACGAUCUAUAUCACUGAAUAGAAAAUAUGCUGGGUGAAGCAGAUCUAGAAGAUUUGUCUGAACCUAUAAAAUCUCCAUCCCAACAGAAUACUGCUCAAAACGUUAUACAUUUUAUGGUUUGUAAUCCAACAGAGGAUUGAGCAUCA
B6: chr14:66974463:66974464:+_ENSMUSG00000022044_ENSMUST00000074523|mus_hu|mus_mus_mus_hu_False|48_108 (ssRNA)
RNA: GGGAGUUCUACAGUCCGACGAUCUUGUAGGAUGAUUUAUUCAGGGGAUCGGCCAGGAAGCAGGAGCAGAACAAGGACACCAGCGGGAGUUCCUUCAUCUUCUCUUUGUAGGCAGCAAGGGUCAUGUUUCUGGGAUCUGGUGGCCAACAGAGGAUUGAGCAUCA
B7: chr3:10015032:10015033:+_ENSMUSG00000027533_ENSMUST00000029046|mus_mus|mus_mus_mus_hu_True|58_78 (ssRNA)
RNA: GGGAGUUCUACAGUCCGACGAUCGUUUUUACCAUCACAAGUGAUGAUACAAUCUGGCUUGGCCAUGGCGCCCAUUUUCCUAAGAGCUAUUCCCACUCCUAGCUCCUUCAUGUAUUCAUCAAAGCCUUUGCUGUCCACCAGGCGCAACAGAGGAUUGAGCAUCA
B8: chr4:76721835:76721836:+_ENSG00000138768_ENST00000264904|hu_mus|hu_hu_hu_mus_True|98_98 (ssRNA)
RNA: GGGAGUUCUACAGUCCGACGAUCGUUUGGCUGGGGUUCUGAGAUGCCUCUGGAAUAUAACUCAUGUUUGCUAAUAAAUCCUAGUUUCUCUAUGAAAUUCUCUUUGCCAAUCCUCUUCUCUAUUAGUUGCUUUAGUUUCUCUUUCAACAGAGGAUUGAGCAUCA
B9: chr5:179045309:179045310:-_ENSG00000169045_ENST00000393432|hu_mus|motif|central (ssRNA)
RNA: GGGAGUUCUACAGUCCGACGAUCAUAAUGAGUUCUAACUUCAGCUCGACUGCUCUUAAAUAUUUCAAUAUACCUGUGCCCGGUUCUUUCCUUGUGUUUCUUUAGAGCCUUUUCAGCUAUUUCCUGUGAAGCAAACUGCACGAACAACAGAGGAUUGAGCAUCA
B10: chr5:68661279:68661280:-_ENSG00000085231_ENST00000217893|hu_mus|FALSE|FALSE (ssRNA)
RNA: GGGAGUUCUACAGUCCGACGAUCACCUGAAUAUGGCUUGAUCAGUGGCAAAGGGGUUUGAUUUCUUUGUCGUGCAAUAUCUAAUAAGAAAUCUCUCGGGGGUGGAGAAGUGAAAGACUGGUCAGCACGGCACUGGAUUGCCAGCAACAGAGGAUUGAGCAUCA
B11: chr3:87781927:87781928:+_ENSMUSG00000004891_ENSMUST00000090973|mus_hu|FALSE|FALSE (ssRNA)
RNA: GGGAGUUCUACAGUCCGACGAUCUCCCUUUCCCAGGUUCUCUUCCUCUUCCAGAUUCCUUUGACUUUCCUUGUCUACCUCCUCUGGAGAUCUCAAAUUCUCCAGGUUCCAUGCUCCCAGAGAUCUCAAUGAUUCCUGAUUCUCCAACAGAGGAUUGAGCAUCA
B12: chr1:60041781:60041782:+_ENSMUSG00000041040_ENSMUST00000036540|mus_hu|mus_mus_mus_hu_False|88_98 (ssRNA)
RNA: GGGAGUUCUACAGUCCGACGAUCAAGUUUACAAUAGCUCAACUUUACAAAUUUAGUCAAAUUUUCUUUUAUUUUCCUUCACAAAAGAAAAUCUUUAUAACCCAGUCCUAGUCUUGGACAUAGUGAAAGCUAUAAAUUCUGACUCAACAGAGGAUUGAGCAUCA
B13: chr7:77240115:77240116:+_ENSG00000127947_ENST00000248594|hu_hu|FALSE|FALSE (ssRNA)
RNA: GGGAGUUCUACAGUCCGACGAUCUUCAUAUUGCUCCUUUGUUUGUACUGCAGAAUGCCUUUGUGUUCUCAUUUCUUGUAUUAAAUUAAAUACAUUAAAUUCCUCUGGUAUUUUCCCAGCUUUUAGUAAAUUCCACGUAUAAUCCAACAGAGGAUUGAGCAUCA
B14: chr2:47387770:47387771:-_ENSG00000143933_ENST00000272298|hu_mus|hu_hu_hu_mus_True|1_108 (ssRNA)
RNA: GGGAGUUCUACAGUCCGACGAUCAAGGUUUUAGGACAAUGACAGUAAGAUAAGGGAAGAAAACAUGGAGGAAUGAAGUCCUAAUUACUAUACAUGCAUAUUUUUUGACAGUAGGGGGGGGGAACCUUUUACAGAUAUUACAAACAACAGAGGAUUGAGCAUCA
B15: chr2:202488911:202488912:-_ENSG00000155755_ENST00000286196|hu_mus|hu_hu_hu_mus_False|1_108 (ssRNA)
RNA: GGGAGUUCUACAGUCCGACGAUCAUUUAACAUUUUUUCAUAAUCUCCAGUAGCAUUUCAGCAUUAUGUAACAAAAGCUCAAUUGUAAAUACAUGUAUCUUAUAAAAAUACACUUAAAAACACGAGUGGGGAGCGCACAAAUACCAACAGAGGAUUGAGCAUCA
B16: 13610230_13610976_1741_CDS_ENSG00000038219_ENST00000040738|human|control|control (ssRNA)
RNA: GGGAGUUCUACAGUCCGACGAUCUCUGGCGGCUUUAGGUUCCAAACUCUUUGUUGAUGAUUCUUCUAAGUCCACACUACUCCUGCCUUGACCCUUGGUUUUUGAAGACUUUGUCUUUUCUGCUUUCUGUUUUCGUUUUUCUUCCAACAGAGGAUUGAGCAUCA
B17: 73477012_73477521_1239_CDS_ENSG00000135624_ENST00000258091|human|control|control (ssRNA)
RNA: GGGAGUUCUACAGUCCGACGAUCCUCUGUCUCCUCCAUAAACUGCUCGGCGCCGCCACGGAGAAUGAAGGUGCAUGUCUUGGCCUUGGGGCAGCCAGUAAAAAAAUUGUACCUCUCGCCUCCAAUCUGGGUCUCUUCAAACACCAACAGAGGAUUGAGCAUCA
B18: chr10:10886374:10886375:+_ENSMUSG00000090112_ENSMUST00000044053|mus_hu|FALSE|FALSE (ssRNA)
RNA: GGGAGUUCUACAGUCCGACGAUCAUGUGGGAUAUCGACAUAAUUUAAUUCUGAACGCAGUACAUCAUAGGUAAUGAUAACUAUAUCCUGUUCUGCCAAAAAAUGAGGUUGUAAAAAGCCAUCUUUCUUCACUCCUUGAUAUACCAACAGAGGAUUGAGCAUCA
B19: chr17:65740002:65740003:+_ENSG00000130935_ENST00000581375|hu_hu|hu_hu_hu_mus_False|18_68 (ssRNA)
RNA: GGGAGUUCUACAGUCCGACGAUCAACAAAUCUUUCUUCCCUGGACGAACAGGAAGAUUCAUAUUAACUUUAUAAAAUAUCCAUCAAGUUAGGUGUGGUGGCCACACCUUUACUCCCCACUUCAAUUGAGGUGGAUCUCUGAGUCAACAGAGGAUUGAGCAUCA
B20: 15623581_15626486_3377_3pUTR_ENSMUSG00000021733_ENSMUST00000057015|mouse|control|control (ssRNA)
RNA: GGGAGUUCUACAGUCCGACGAUCUGUUAACAACUGAAGGGUCAAUACUAUAUUUUAGAGUUUUCACUGGAAUCUGCAGGAGACUCCCUCUUUCGAAUGGGAGGUGCACAGUGUCCUCAUCAUCCUGAAGCAUCCGUUCAGCUUCAACAGAGGAUUGAGCAUCA
B21: chr2:84898283:84898284:+_ENSMUSG00000033955_ENSMUST00000148682|mus_mus|motif|central (ssRNA)
RNA: GGGAGUUCUACAGUCCGACGAUCUUGAGGUGACCCAGGUCUUGGAAACGUCGGUAGGUGCUUCAGAGCAAGCCAGUUUAGCGGGGUCCCCAUUCAUUGCCGGGCUGGAAGUGAGGUUCCUCUCCUCAGGAGUCUUGCUAUGCUCAACAGAGGAUUGAGCAUCA
B22: chr4:39739082:39739083:+_ENSG00000078140_ENST00000261427|perfect_dup|motif|central (ssRNA)
RNA: GGGAGUUCUACAGUCCGACGAUCUAUUUUUAUCUCUAGUUGGUAUCUUCCUCCUUCAUAUGGUGUGUCUGGAGGUCCUGCGGUUUCUCCUCUUAAUUCUGUAAAAUUCUCAUCUACAAGAUCUACUUUAAUUUGAUUUUUGCUCAACAGAGGAUUGAGCAUCA

This is one part of the list.

This experiment concerns the target T1, UNK ZnF1-3. The experiment is described as follows: nsRBNS (natural sequence RNA bind-n-seq); RBNS binding buffer (assumed for nsRBNS): 25 mM Tris pH 7.5, 150 mM KCl, 3 mM MgCl2, 0.01% Triton X-100, 500 ug/ml BSA, 20 U/ml SUPERase-In, 4 C; UNK is unkempt and MSI1 is Musashi-1; names of the RNAs are library labels; protein concentration not given here; high values mean tight binding.
With B1, the binding signal stood at 1.07 enrichment R. Then B2, with 1.18 enrichment R.

B3 yielded a binding signal of 0.957 enrichment R. Then B4, with 0.842 enrichment R; and B5, with 0.7 enrichment R; and B6, with 2.86 enrichment R. The molecule B7 gave a binding signal of 0.587 enrichment R. Under B8 stands 0.48 enrichment R.

On to B9, for which the binding signal came to 0.675 enrichment R. Then B10, with 1.2 enrichment R; and B11, with 0.512 enrichment R; and B12, with 0.53 enrichment R. Turning to B13, the binding signal turned out to be 0.606 enrichment R. Then B14, with 1.93 enrichment R; and B15, with 1.19 enrichment R. Then B16, with 0.177 enrichment R; and B17, with 1.24 enrichment R; and B18, with 0.817 enrichment R. Under B19 stands 0.644 enrichment R; under B20, 0.51 enrichment R; under B21, 0.934 enrichment R. In turn, B22 came in with a binding signal of 0.313 enrichment R.
